# Measured values from publication PMC12136788.
# Some of the results follow.
# T1: UNK ZnF1-3 (human, UniProt Q9C0B0 31-174)
# T1 sequence: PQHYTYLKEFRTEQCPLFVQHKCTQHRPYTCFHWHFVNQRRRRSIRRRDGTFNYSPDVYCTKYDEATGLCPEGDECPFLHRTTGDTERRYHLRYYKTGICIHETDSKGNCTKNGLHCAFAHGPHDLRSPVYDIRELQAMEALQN
# B1: chr7:75932113:75932114:+_ENSG00000106211_ENST00000248553|hu_hu|hu_hu_hu_mus_False|18_78 (ssRNA)
# RNA: GGGAGUUCUACAGUCCGACGAUCCUGCGACCACUCAUCGGGCAACCGGGGCACCCCGAAGGCCUGGUCGAAGAGGCGGCUGUGUGCAGGGUACCAGUCCCGGAAUGGUUCCCAGCUGCCCCGCAGGAGCAGCGAGAAGGGCACCAACAGAGGAUUGAGCAUCA
# B2: chr16:16313726:16313727:-_ENSMUSG00000022789_ENSMUST00000023477|mus_mus|FALSE|FALSE (ssRNA)
# RNA: GGGAGUUCUACAGUCCGACGAUCAUACAUUGAUUAUGUGAGGAACUUGCCAGGCUCCAUCUUUUAAAGCCAGGUCAGUCUAUAUAAAUAGUGCAUGCAUUAUAGUCAUGAAAUGUCCUGGAGCUUCCUUUCUGAGGACUACAGCAACAGAGGAUUGAGCAUCA
# B3: chr11:105962086:105962087:+_ENSG00000149313_ENST00000278618|hu_hu|motif|central (ssRNA)
# RNA: GGGAGUUCUACAGUCCGACGAUCGCCUAUAUCCAAGUUUAAUGGAGAUAGAUCAAAUUCAAGCCGCUGCAAUUCAAAUCCGGGUCCAACACCAAUGGCUUUUAUGAAGCUUUCCUUAAGUGCCCAAUUCCUAUAAAACAUAUCCAACAGAGGAUUGAGCAUCA
# B4: chr9:37780812:37780813:-_ENSG00000107371_ENST00000396521|hu_mus|FALSE|FALSE (ssRNA)
# RNA: GGGAGUUCUACAGUCCGACGAUCUAACGUCUGCUGAAUGGUCUUAGCUUUGACCCAUAUUCUUCCAUUCAUUCCAAACACAAUCUCCAAUGGAUAGAGUUUUCCCAGCUCUUGCACAAUUUCACAAUCUGGAGCUAAUAGCUUCAACAGAGGAUUGAGCAUCA
# B5: chr7:149068622:149068623:-_ENSMUSG00000025139_ENSMUST00000001950|mus_hu|mus_mus_mus_hu_False|88_98 (ssRNA)
# RNA: GGGAGUUCUACAGUCCGACGAUCGUGAGGCCUCUGAGUGAGGUUCCUGCUCUGCAGUGGGUUAGAGUUGUUAAUAUCACGGAACAUACCAUCUAGAACGUUCCAGUCCCGCCUGACACCUUCAUUCCCAAUGGAGAAGAAAUCCAACAGAGGAUUGAGCAUCA
# B6: chr8:38205342:38205343:-_ENSG00000147548_ENST00000316985|hu_hu|FALSE|FALSE (ssRNA)
# RNA: GGGAGUUCUACAGUCCGACGAUCCAGAAUUUCAUGUGGUCUUGUGUUUGGAAUUUCUGAAUGAUAAUAGUCAGUGGGGCUAAAGUUUCUAACUGCACCAAAGCCAUUGGCUGACCCAUUAGGAUACUGAUUAUAUGACUGGUACAACAGAGGAUUGAGCAUCA
# B7: chr21:38595834:38595835:-_ENSG00000157538_ENST00000309117|hu_mus|FALSE|FALSE (ssRNA)
# RNA: GGGAGUUCUACAGUCCGACGAUCAUCAAAGAUGACUUUUCCUUAGACUCACUAGAAAGUACGGCCCACAUUUUUUGGGUACUAGAUUGUUUAAAUAUAACAAGGAUAAGUAUGACAAAGCAAAAGUACAUUCUCUGGGAACUCCAACAGAGGAUUGAGCAUCA
# B8: chr4:99339852:99339853:+_ENSG00000138698_ENST00000453712|hu_hu|motif|central (ssRNA)
# RNA: GGGAGUUCUACAGUCCGACGAUCUGCAUGCUGUACUGUUACAUUUCCAUCUUCUACAUGUCUGUCCAGUAAAUCCAUAAGUUUUUCGGCAAUCCCAUUGUCUACCAUAUGAAUACAAUUUGCAUCAUUUCUGGCAAAAUUUGCCAACAGAGGAUUGAGCAUCA
# B9: chr2:216981417:216981418:+_ENSG00000079246_ENST00000392132|hu_hu|hu_hu_hu_mus_True|38_108 (ssRNA)
# RNA: GGGAGUUCUACAGUCCGACGAUCCUGAUACUGAUCCUUGCCAGCAAGGGCAUUAUCAGUGCCAUCUGUGCCAUAGAGGACUAACGCAAUCUCAUCUUUGUUCUCAGAAAAUACCUGUCGUUGGACAAACAUAGUCAUCACUUUCAACAGAGGAUUGAGCAUCA
# B10: chr13:51516861:51516862:+_ENSMUSG00000067586_ENSMUST00000087978|mus_hu|FALSE|FALSE (ssRNA)
# RNA: GGGAGUUCUACAGUCCGACGAUCCAUUGAUGUCAAGAAGGCAACAGAAAUGCUCCUGGGGAAGAUCUCCUUACAAAUAGGUUUCAUCUCAUCAGUAACAAAAAUUAGAAAAGCCUUUGGUCAGCCCAUGGAGGUGAGUUACUCCAACAGAGGAUUGAGCAUCA
# B11: chrX:140365796:140365797:-_ENSMUSG00000031285_ENSMUST00000033642|mus_mus|mus_mus_mus_hu_False|38_58 (ssRNA)
# RNA: GGGAGUUCUACAGUCCGACGAUCCUUCUCAUUACUCAGUGCCUGCAAGGUUCUGGUUCGGUAGAAGCUACAGUGGGCACUAUGAGUGGGGCUAGGCAGUCCAUUCAUCCGGGAGCCUCGCAUGUUCCUGGAUGUCUUAUCUCUCAACAGAGGAUUGAGCAUCA
# B12: chr7:28421298:28421299:+_ENSMUSG00000004056_ENSMUST00000051356|mus_hu|FALSE|FALSE (ssRNA)
# RNA: GGGAGUUCUACAGUCCGACGAUCCAUCAUCUCGUACAUGACCACACCCAGCCCCCACCAGUCCACGGCCCGGCCAUAGUCAUUGUCCUCCAGCACCUCAGGCGCCAGGUACUCCGGGGUCCCACAGAAGGUUUUCAUGGUGGCCAACAGAGGAUUGAGCAUCA
# B13: chr7:90019433:90019434:+_ENSMUSG00000057706_ENSMUST00000082237|mus_mus|FALSE|FALSE (ssRNA)
# RNA: GGGAGUUCUACAGUCCGACGAUCAAUAAUACAGUGUUCUUUGCCAUAAGGCCAUACUAAAAAUAAAAAGAUUUAACCCAGCUACAAAAAAGUUCACUGAACUUAAAUUAAAAUACUUGUAAACAUCUUUGCAAUAUGAAAUAUCAACAGAGGAUUGAGCAUCA
# B14: chr11:75578393:75578394:+_ENSMUSG00000020849_ENSMUST00000067664|mus_hu|motif|central (ssRNA)
# RNA: GGGAGUUCUACAGUCCGACGAUCGACACAGUAAUGCUGAAAAAGCCUCUAUGUAGUCCUGUUAGUGUCUUAAAGAACCGGAAAGCUGGGACCAGUAAAAUCCACAGAAAUUCACUCUUGCCUUUAAGAACUUUUGAAAACUGUCAACAGAGGAUUGAGCAUCA
# B15: chr17:34036268:34036269:+_ENSG00000006125_ENST00000262325|hu_mus|FALSE|FALSE (ssRNA)
# RNA: GGGAGUUCUACAGUCCGACGAUCCAUUUUGCCAUCUUCUACAAAAAGCACAUUGAGUGGGAUGAGGCAGCUGAAGUAGAAGACAUCAAUAUUGUUUUUAACAGCCACCUGCAGGUUAUUCAGGGGCUCCAUCUUCAUGACUGGCAACAGAGGAUUGAGCAUCA
# B16: chr11:120422317:120422318:-_ENSMUSG00000025130_ENSMUST00000026122|mus_mus|FALSE|FALSE (ssRNA)
# RNA: GGGAGUUCUACAGUCCGACGAUCGCUGACCUGGACAGAGAUCCCUUUCCAAAAUUGAAAAGCAAAAGAAGAGACAGGUCUAAGUGUACGUGUGUCAGAUGAGUGUGGCUUCAGAAAGAUUCCCUGGGUUCUGAUGGCGCUCCCCAACAGAGGAUUGAGCAUCA
# B17: chr10:27409400:27409401:-_ENSG00000136758_ENST00000375972|hu_mus|motif|central (ssRNA)
# RNA: GGGAGUUCUACAGUCCGACGAUCAGCUUGGUUCACAAGAUUCUCCAACUCUGCUCCAGAGAACCCAACAGUCCCUCGAGCGGUGAUUUCUGGAUCAACAGAUUUAUCAAACUUUAUCUUGUUGAGAUACCAUUUCAAAAUUUCCAACAGAGGAUUGAGCAUCA
# B18: chr8:71331417:71331418:+_ENSMUSG00000031864_ENSMUST00000110241|mus_hu|FALSE|FALSE (ssRNA)
# RNA: GGGAGUUCUACAGUCCGACGAUCGACCAGCAUGGUGGAAUACACCACUUGGUUUUUAUAUUUUGCAUGUGCUUCACUAUCAAAGUUGUUCAUGUAUCUGCAGAGAUCCUUCAUUCUAUGCAAAAUAUCUCCAUAGCUUCGUCUCAACAGAGGAUUGAGCAUCA
# B19: 81065872_81065992_3071_CDS_ENSG00000108175_ENST00000334512|human|control|control (ssRNA)
# RNA: GGGAGUUCUACAGUCCGACGAUCCAUCUGGCUGGGACUCAUGGUCUUGAACCGCUUGGAGGGGAUGCCAUCAGGGUCGUCCUUGAUGUGUAAGUCCGACUUGAUGGGCACCGGCCGCCAGCUGCACGUGGGAUCGAUGGUGACCAACAGAGGAUUGAGCAUCA
# B20: chr4:115894766:115894767:+_ENSMUSG00000028698_ENSMUST00000030464|mus_hu|mus_mus_mus_hu_True|68_98 (ssRNA)
# RNA: GGGAGUUCUACAGUCCGACGAUCUUCCACACGGAAAGUACUUGGGGGUUUUCCAACGGCCAGUACCGUCCAGCCAAAACUACCCGAACAGGGUCCUCCCCCUCUCUCCUACAGAACACAACAAAAUGCCCCCGAACUUUCAAGCAACAGAGGAUUGAGCAUCA
# B21: chr5:119214657:119214658:+_ENSMUSG00000018076_ENSMUST00000100816|mus_mus|FALSE|FALSE (ssRNA)
# RNA: GGGAGUUCUACAGUCCGACGAUCAUAGCUUUUUUUUCUGGUUUUUUUUGUGUUUUUUUUUUCCUUUUCACUUUUUCUGCGUAGAGUUGGGUUUCUAGGGAAGAAAAGCCCCUGCAGUAAAAACAGCCCAUUUAAAAAAGAGAGCAACAGAGGAUUGAGCAUCA
# B22: 123137163_123189634_1759_CDS_ENSMUSG00000041650_ENSMUST00000038374|mouse|control|control (ssRNA)
# RNA: GGGAGUUCUACAGUCCGACGAUCGGGUGACGCCAGGUUCCACGUACUGGUCACAUUUAGUUUCGAGCCAUCAACUUCCACGGUAAAUGCCGGCCCAUUGUUAGAUGCCACGACAGUAUGAUCUUCAUCAUGUAACUUUACCGACAACAGAGGAUUGAGCAUCA
# Target: T1, UNK ZnF1-3
# Assay: nsRBNS (natural sequence RNA bind-n-seq); RBNS binding buffer (assumed for nsRBNS): 25 mM Tris pH 7.5, 150 mM KCl, 3 mM MgCl2, 0.01% Triton X-100, 500 ug/ml BSA, 20 U/ml SUPERase-In, 4 C; UNK is unkempt and MSI1 is Musashi-1; names of the RNAs are library labels; protein concentration not given here; high values mean tight binding
row,Binder,binding signal
1,B1,0.724 enrichment R
2,B2,0.796 enrichment R
3,B3,1.44 enrichment R
4,B4,0.651 enrichment R
5,B5,0.525 enrichment R
6,B6,1.38 enrichment R
7,B7,1.24 enrichment R
8,B8,0.695 enrichment R
9,B9,0.641 enrichment R
10,B10,1.79 enrichment R
11,B11,0.321 enrichment R
12,B12,1.8 enrichment R
13,B13,1.69 enrichment R
14,B14,1.61 enrichment R
15,B15,1.13 enrichment R
16,B16,1.35 enrichment R
17,B17,0.859 enrichment R
18,B18,0.743 enrichment R
19,B19,0.917 enrichment R
20,B20,1.2 enrichment R
21,B21,1.21 enrichment R
22,B22,1.09 enrichment R
